PubChem BioAssay AID1745853 (National Center for Advancing Translational Sciences (NCATS), 2022)
Some of the results follow. These are further read-outs of the screen, such as a control signal, another cell line or another target. No call is given for them.

What was measured:
Assay in all cases: Primary Screen for Target Class Profiling of Small Molecule Inhibitors of Methyltransferases
[1] = target: Glycine N-methyltransferase (Homo sapiens) (UniProt Q14749); settings: purified enzyme, MTase-Glo SAH luminescence; measured here: GNMT inhibition; at 40 µM; stronger effect = lower value
In short: (§1)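 Each enzyme was reacted with SAM and its substrate, with compounds tested once at 40 uM; SAH formed was read by MTase-Glo luminescence.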

[2] = target: Guanidinoacetate N-methyltransferase (Homo sapiens) (UniProt Q14353); settings: purified enzyme, MTase-Glo SAH luminescence; measured here: GAMT inhibition; at 40 µM; stronger effect = lower value
In short: as §1

[3] = target: Histamine N-methyltransferase (Homo sapiens) (UniProt P50135); settings: purified enzyme, MTase-Glo SAH luminescence; measured here: HNMT inhibition; at 40 µM; stronger effect = lower value
In short: as §1

[4] = target: Nicotinamide N-methyltransferase (Homo sapiens) (UniProt P40261); settings: purified enzyme, MTase-Glo SAH luminescence; measured here: NNMT inhibition; at 40 µM; stronger effect = lower value
In short: as §1

[5] = target: Phenylethanolamine N-methyltransferase (Homo sapiens) (UniProt P11086); settings: purified enzyme, MTase-Glo SAH luminescence; measured here: PNMT inhibition; at 40 µM; stronger effect = lower value
In short: as §1
% is scaled to controls: 0 for no effect and ±100 for the full control effect.

Row | Compound | activity change, negative = inhibition [1] | activity change, negative = inhibition [2] | activity change, negative = inhibition [3] | activity change, negative = inhibition [4] | activity change, negative = inhibition [5]
1 | CCCn1c(=O)c2ccc(C(=O)NC3CCCCC3)cc2n2c(=O)n(Cc3ccc(C)cc3)nc12 | 3.14% | 0% | 5.8% | 5.29% | 4.85%
2 | Cc1ccc(-c2ccc3ncc4c(c3n2)n(C2CCN(C(=O)[C@H](C)O)CC2)c(=O)n4C)cn1 | -42.9% | -15.6% | -41.8% | -31.7% | -30.9%
3 | Cc1ccc(N2C(=O)c3cc4occc4n3CC2(C)C(=O)NC2CCC(C)CC2)cc1C (stereo not drawn) | -7.22% | 2.81% | -0.45% | 0.064% | -6.19%
4 | Cc1nc2c3ccccc3n3c(CCCC(=O)NCCCOC(C)C)nnc3n2n1 | -8.91% | 0% | 2.71% | 10.4% | -3.39%
5 | CC1(C(=O)NCc2ccccc2)Cn2c(cc3ccccc32)C(=O)N1Cc1ccc(Cl)cc1 (stereo not drawn) | -1.39% | 0% | 3.15% | 0.747% | -2.61%
6 | CN(C)[C@@H]1CN(C(=O)CCc2ccccc2)C[C@H]1CO | -3.77% | -6.75% | -2.22% | -6.67% | -4.73%
7 | COc1cccc(Nc2ncnn3ccc(CN4CC[C@@H](N)[C@H](O)C4)c23)c1 | -12.9% | -13.2% | -9.83% | -25.3% | -14.8%
8 | Cc1ccccc1C(C(=O)NC1CCCCC1)N(C(=O)CNc1ccc(C#N)cc1)c1cccc(F)c1 (stereo not drawn) | -1.58% | -19.2% | 5.11% | -28.8% | -4.86%
9 | C[C@@H]1C[C@H]2[C@@H]3CCC4=CC(=O)C=C[C@]4(C)[C@@]3(F)[C@@H](O)C[C@]2(C)[C@@]1(O)C(=O)COP(=O)(O)O | -4.55% | -0.213% | 6.47% | -8.01% | 0.694%
10 | O=C(CCCc1nc2ccccc2s1)N1CCc2nc3cc(-c4ccccc4)[nH]n3c(=O)c2C1 | -19.6% | -6.51% | -8.67% | -14.1% | -13.2%
11 | OCCN1CCN(c2ccc(-c3nc(-c4cccc(C(F)(F)F)c4)no3)cn2)CC1 | -3.76% | 2.51% | -2.28% | -7.72% | -2.25%
12 | Cn1c2c(c3ccccc31)C(C(=O)NCc1ccc(F)cc1)N(Cc1ccc(Cl)cc1)C(=O)CS2 (stereo not drawn) | 0.446% | 0% | 8.67% | 4.23% | 6.27%
13 | Cc1cccc(CC(=O)N2CCc3c2ccc(-c2cn(C)c4ncnc(N)c24)c3F)n1 | -25.5% | -4.95% | -5.14% | -29.2% | -19.9%
14 | N#Cc1cnc2cnc(NCc3cccnc3)cc2c1Nc1ccc(F)c(Cl)c1 | -86.2% | -65.9% | -80.9% | -70.9% | -80.1%
15 | COc1cccc(CN2C(=O)c3ccc(-c4ccco4)n3CC2(C)C(=O)NCc2ccccc2)c1OC (stereo not drawn) | 0.973% | 0.776% | 6.62% | 5.5% | 2.57%
16 | Cc1ccc(NS(=O)(=O)c2cc3c(cc2NCCO)NC(=O)CC3)cc1C | – | 7.39% | – | -10.5% | -3.99%
17 | NO | -10.9% | 2.19% | 0.76% | -3.81% | 3.56%
18 | CSCCC(=O)N1CCc2[nH]nc(-c3ccc(C(F)(F)F)cc3)c2C1 | -5.8% | -2.19% | -8.06% | -12.7% | -3.08%
19 | CC(C)CCn1c(=O)c2ccccc2n2c(SCC(=O)Nc3ccc4c(c3)OCO4)nnc12 | 0.343% | 0.069% | 6.96% | -4.31% | 1.24%

Row | Compound | activity change, negative = inhibition [1] | activity change, negative = inhibition [2] | activity change, negative = inhibition [3] | activity change, negative = inhibition [4] | activity change, negative = inhibition [5]
20 | Cn1cccc1CN1CCC(N2CCNC2=O)CC1 | -3.6% | -3.38% | -1.02% | -11.2% | 1.75%
21 | Cc1ccc(C(=O)Cn2nc3n(C(C)C)c(=O)c4ccc(C(=O)NC5CCCC5)cc4n3c2=O)cc1 | -3.59% | -10.3% | 2.57% | -6.7% | -4.92%
22 | CNC(=O)c1ccc2c(C(=Nc3cccc(CN(C)C)c3)c3ccccc3)c(O)[nH]c2c1 | -32.8% | -2.52% | -92.7% | -31.6% | -19.1%
23 | CC1(C(=O)NC2CCCCC2)Cn2c(cc3ccccc32)C(=O)N1Cc1cccnc1 (stereo not drawn) | -3.04% | 4.52% | 1.1% | 4.75% | -0.303%
24 | CCCN1C(=O)c2cc(C(=O)NCC)nn2CC1(C)C(=O)NC1CCCC1 (stereo not drawn) | 1.42% | 4.72% | 0.733% | -1.18% | -1.4%
25 | Cc1ccc(N2C(=O)c3cc4occc4n3CC2(C)C(=O)NC2CCCCCCC2)cc1C (stereo not drawn) | -2.81% | 4.15% | 2.91% | 3.24% | -2.64%
26 | COc1cc(/C=C/C(=O)OC(C)(C)C(OC2OC(CO)C(O)C(O)C2O)C(=O)OCc2ccc(OC3OC(CO)C(O)C(O)C3O)cc2)ccc1O (stereo not drawn) | 1.45% | 6.96% | 9.48% | -4.67% | 7.99%
27 | CCc1cc(=O)n(CC(=O)NCc2ccc(OC)c(OC)c2)c(-c2ccccc2)n1 | -7.04% | -5.58% | -0.318% | -15.7% | -4.92%
28 | CC(C)OCCCn1c(=O)c2ccccc2n2c(=O)n(CC(=O)NCc3ccccc3)nc12 | 3.86% | 2.39% | 6.83% | 3.01% | 3.87%
29 | CCN(CCc1nc2ccc(C)cc2[nH]1)C(=O)c1ccccc1C1CCNC1 (stereo not drawn) | -2.18% | -3.67% | -89.6% | -9.72% | -4.34%
30 | Fc1ccccc1CN1CCOC[C@H](Oc2cccnc2)C1 | -0.005% | -5.2% | 1.35% | 1.19% | -1.51%
31 | COc1cc(SC)ccc1C(=O)N[C@H]1CCN2C(=O)[C@@H](CC(=O)O)NC(=O)[C@@H]2C1 | -0.325% | 1.07% | 2.76% | 2.23% | 1.76%
32 | Cc1noc(C)c1Cc1ccc(C(=O)N2CCCCCCNC(=O)[C@@H]3CCCC[C@@H]32)o1 | -1.78% | 7.05% | 0.669% | -2.63% | -1.48%
33 | CC(C)[C@H](CO)Nc1nc(Nc2ccc(C(=O)O)c(Cl)c2)c2ncn(C(C)C)c2n1 | 2.99% | 1.41% | 9.6% | -7.32% | 6.47%
34 | COc1ccc(F)cc1-c1ccc(CN2CCC(NC(=O)c3ccc(Cl)cc3)C2)cc1 (stereo not drawn) | -4.27% | -2.33% | -9.47% | -11.1% | -9.6%
35 | CCOC(=O)c1cc2n(n1)CC(C)(C(=O)NCc1ccccc1)N(CCc1ccccc1)C2=O (stereo not drawn) | 1.04% | 4.86% | 1.93% | -3.96% | -2.96%
36 | N#Cc1cccc(N2CCN(Cc3ccc(F)c(Cl)c3F)CC2)n1 | -8.15% | -5.26% | -4.1% | -11% | -19.4%
37 | CCNC(=O)[C@@H]1C[C@H](NC(=O)c2ccc(CO)o2)CN1Cc1nccs1 | -2.44% | 1.97% | 2.56% | -0.619% | 11.1%
38 | CC1=C(C(=O)Nc2ccccc2)C(c2cc(C)ccc2C)N2C(CC(=O)NC(C)C)=CSC2=N1 (stereo not drawn) | -7.44% | -3.9% | -4.67% | -4.99% | -11.4%
